From a collection of fitness landscapes (doi:10.1016/j.celrep.2020.107928)
The full ranking holds about 81,000 sequences; the median of “one-hybrid fitness for binding parS DNA” is about -0.17, and the highest 2% start at about 0.51. This is one part of the list.

B1: Caulobacter ParB omega fusion; a variant is named by its letters at X, in order, B8GW30 (parent)
chain: MESVVVGEPGMSEGRRGLGRGLSALLGEVDAAPAQAPGEQLGGSREAPIEILQRNPDQPRRTFREEDLEDLSNSIREKGVLQPILVRPSPDTAGEYQIVAGERAWRAAQRAGLKTVPIMVRELDDLAVLEIGIIENVQRADLNVLEEALSYKVLMEKFERTQENIAQTIGKSXSHVANXMRLLXLPDEVQSYLVSGELTAXHARAIAAAADPVALAKQIIEGGLSVRETEALARKAPNLSAGKSKGGRPPRVKDTDTQALESDLSSVLGLDVSIDHRGSTGTLTITYATLEQLDDLCNRLTRGI

Variants of: B1
Experiment: one-hybrid fitness for binding parS DNA (scaled: cognate 1, non-cognate 0); higher = stronger binding
Conditions: with parS DNA site
How it was run: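 Bacterial one-hybrid selection in E. coli USO rpoZ- hisB- pyrF- with a HIS3 reporter carrying the site 19 bp from the promoter, screening Caulobacter ParB libraries with four specificity codons randomised (NNS). Cells grew 48 hours at 37°C on M9-minus-histidine plus 0.1 mM IPTG and 5 mM 3-AT. Plasmids before and after selection were Illumina-sequenced, three replicate libraries pooled, and variants under 10 reads dropped. Fitness is the log change in variant-to-wild-type read ratio, rescaled to cognate 1, non-cognate 0.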

Variant | one-hybrid fitness for binding parS DNA
CAHN | ≤ 0.2
ELSG | ≤ 0.2
KNNM | ≤ 0.2
HSHA | ≤ 0.2
PDML | ≤ 0.2
CYIS | ≤ 0.2
CSAK | ≤ 0.2
MIRK | ≤ 0.2
HYTE | ≤ 0.2
QAPK | ≤ 0.2
QNAD | ≤ 0.2
DDHV | ≤ 0.2
KLKR | ≤ 0.2
KYQG | ≤ 0.2
STLT | ≤ 0.2
TTIK | ≤ 0.2
SQQG | ≤ 0.2
SFSA | ≤ 0.2
LTGD | ≤ 0.2
MPMG | ≤ 0.2
EFDM | ≤ 0.2
TIHT | ≤ 0.2
MNTT | ≤ 0.2
RMCW | 0.211

Variant | one-hybrid fitness for binding parS DNA
QLLP | ≤ 0.2
QAMY | ≤ 0.2
TAKC | ≤ 0.2
RRCP | ≤ 0.2
NVFG | ≤ 0.2
TLWV | ≤ 0.2
ERGT | ≤ 0.2
HWRH | ≤ 0.2
YDWR | ≤ 0.2
NSHN | ≤ 0.2
QMHQ | ≤ 0.2
LLFR | ≤ 0.2
KETS | ≤ 0.2
SSFH | ≤ 0.2
EQHG | ≤ 0.2
IRAS | ≤ 0.2
QIYD | ≤ 0.2
GDVR | ≤ 0.2
IEPW | ≤ 0.2
QRAY | ≤ 0.2
ELSC | ≤ 0.2
NKYN | ≤ 0.2
RFQK | ≤ 0.2
SVRK | ≤ 0.2

Variant | one-hybrid fitness for binding parS DNA
QKTC | ≤ 0.2
CCYF | 0.264
QSPL | ≤ 0.2
HTSR | ≤ 0.2
LILN | ≤ 0.2
QSNC | ≤ 0.2
PGIM | ≤ 0.2
SPSY | ≤ 0.2
RCLS | 1.04
KRGP | ≤ 0.2
GIDS | ≤ 0.2
TRYY | ≤ 0.2
NIEG | ≤ 0.2
KKDT | ≤ 0.2
SIYP | ≤ 0.2
NRIF | ≤ 0.2
MRDS | ≤ 0.2
RQDS | 0.977
TDSA | ≤ 0.2
QDDV | ≤ 0.2
LTNL | ≤ 0.2
RNII | ≤ 0.2
RYSS | 0.911
RKKI | ≤ 0.2

Variant | one-hybrid fitness for binding parS DNA
PTNF | ≤ 0.2
PYMV | ≤ 0.2
SSNM | ≤ 0.2
KPNC | ≤ 0.2
ELPR | ≤ 0.2
YERN | ≤ 0.2
FTPQ | 0.304
LCGC | ≤ 0.2
QSSG | ≤ 0.2
QTFC | ≤ 0.2
CGMV | ≤ 0.2
SVNE | ≤ 0.2
RELK | ≤ 0.2
PKEQ | ≤ 0.2
LPFC | ≤ 0.2
PFRD | ≤ 0.2
GGPG | ≤ 0.2
QVPG | ≤ 0.2
ACTG | ≤ 0.2
PQKS | ≤ 0.2
DQGL | ≤ 0.2
TRVC | ≤ 0.2
PSDV | ≤ 0.2
LKRA | ≤ 0.2

Variant | one-hybrid fitness for binding parS DNA
DVWA | ≤ 0.2
YGVV | ≤ 0.2
QCYS | ≤ 0.2
RFHE | ≤ 0.2
LQIP | ≤ 0.2
GTKH | ≤ 0.2
PMGT | ≤ 0.2
LKPK | ≤ 0.2
TYMS | ≤ 0.2
TGGG | ≤ 0.2
PVNW | ≤ 0.2
TGRR | ≤ 0.2
HSMA | ≤ 0.2
MLSA | ≤ 0.2
FRHP | ≤ 0.2
MDLG | ≤ 0.2
IHLT | ≤ 0.2
ADWE | ≤ 0.2
WTAD | ≤ 0.2
RAYF | 0.264
QRFF | ≤ 0.2
FPGM | ≤ 0.2
PNHD | ≤ 0.2
KHPY | ≤ 0.2

Variant | one-hybrid fitness for binding parS DNA
GTIK | ≤ 0.2
PRID | ≤ 0.2
QNAK | ≤ 0.2
THSK | ≤ 0.2
HIYG | ≤ 0.2
SVCG | ≤ 0.2
EIGS | ≤ 0.2
PQWY | ≤ 0.2
WRLT | ≤ 0.2
DYPC | ≤ 0.2
NNNT | ≤ 0.2
SMDC | ≤ 0.2
SRCW | ≤ 0.2
CAPD | ≤ 0.2
RCKA | 0.844
FYKR | ≤ 0.2
PGMG | ≤ 0.2
ANMD | ≤ 0.2
CFPS | ≤ 0.2
GSNA | ≤ 0.2
ETLS | ≤ 0.2
GSSR | ≤ 0.2
KDLG | ≤ 0.2
PGCY | ≤ 0.2

Variant | one-hybrid fitness for binding parS DNA
PADD | ≤ 0.2
ADHR | ≤ 0.2
GTSE | ≤ 0.2
GTSG | ≤ 0.2
DKYW | ≤ 0.2
QPFN | ≤ 0.2
RCQR | ≤ 0.2
MAVG | ≤ 0.2
KWLR | ≤ 0.2
CGGW | ≤ 0.2
YLEP | ≤ 0.2
TFTY | ≤ 0.2
LTRP | ≤ 0.2
RAEQ | 0.234
MTLT | ≤ 0.2
TMET | ≤ 0.2
TSLL | ≤ 0.2
VTPK | ≤ 0.2
RHTN | 0.384
KFPS | ≤ 0.2
LNFF | ≤ 0.2
YVWT | ≤ 0.2
LTHP | ≤ 0.2
QRIR | ≤ 0.2

Variant | one-hybrid fitness for binding parS DNA
MCNA | ≤ 0.2
IPTH | ≤ 0.2
TLPW | ≤ 0.2
DTME | ≤ 0.2
YPYR | ≤ 0.2
TYFS | ≤ 0.2
RRFH | ≤ 0.2
MLES | ≤ 0.2
CTAG | ≤ 0.2
DHMS | ≤ 0.2
YPVP | ≤ 0.2
VTLQ | ≤ 0.2
QLVL | ≤ 0.2
SSVT | ≤ 0.2
NMES | ≤ 0.2
YSLG | ≤ 0.2
AMCA | ≤ 0.2
PMSC | ≤ 0.2
FNQT | ≤ 0.2
WTHG | ≤ 0.2
PITR | ≤ 0.2
KPSN | ≤ 0.2
TSGC | ≤ 0.2
LKAI | ≤ 0.2

Variant | one-hybrid fitness for binding parS DNA
IDNT | ≤ 0.2
LKPN | ≤ 0.2
PPVY | ≤ 0.2
MYTW | ≤ 0.2
GMAR | ≤ 0.2
QQDI | ≤ 0.2
SQSD | ≤ 0.2
QFRC | ≤ 0.2
DQLG | ≤ 0.2
GSSL | ≤ 0.2
CPVW | ≤ 0.2
NAQW | ≤ 0.2
GVPA | ≤ 0.2
WVAN | ≤ 0.2
PKIG | ≤ 0.2
PSPD | ≤ 0.2
NCGT | ≤ 0.2
CGAM | ≤ 0.2
RVEN | 0.294
YCPG | ≤ 0.2
CKRG | ≤ 0.2
RLIS | 1
LRKQ | ≤ 0.2
MHMC | ≤ 0.2

Variant | one-hybrid fitness for binding parS DNA
YIQS | ≤ 0.2
LYRN | ≤ 0.2
YSQA | ≤ 0.2
DGRN | ≤ 0.2
RSGH | 0.208
PTAV | ≤ 0.2
YSSW | ≤ 0.2
IKSC | ≤ 0.2
VRVQ | ≤ 0.2
EPFM | ≤ 0.2
YPVY | ≤ 0.2
YCDA | ≤ 0.2
GLND | ≤ 0.2
GHQS | ≤ 0.2
HKNC | ≤ 0.2
KYME | ≤ 0.2
KAGE | ≤ 0.2
HKRC | ≤ 0.2
QHKH | ≤ 0.2
MDYS | ≤ 0.2
LLGL | ≤ 0.2
SDVS | ≤ 0.2
APWL | ≤ 0.2
GSFT | ≤ 0.2

Variant | one-hybrid fitness for binding parS DNA
PGQC | ≤ 0.2
INCR | ≤ 0.2
VAML | ≤ 0.2
ISMT | ≤ 0.2
RCHY | 0.46
MPVT | ≤ 0.2
HVIK | ≤ 0.2
PMYC | ≤ 0.2
KWPC | ≤ 0.2
MGSM | ≤ 0.2
LHLE | ≤ 0.2
CAES | ≤ 0.2
YSPF | ≤ 0.2
GHSV | ≤ 0.2
PGKA | ≤ 0.2
IMHV | ≤ 0.2
VHLI | ≤ 0.2
RTCA | 0.572
PGST | ≤ 0.2
HWHE | ≤ 0.2
GKTC | ≤ 0.2
RSGL | ≤ 0.2
QRYY | ≤ 0.2
PNVA | ≤ 0.2

Variant | one-hybrid fitness for binding parS DNA
LKQL | ≤ 0.2
NISV | ≤ 0.2
SQNS | ≤ 0.2
YIHA | ≤ 0.2
YKAL | ≤ 0.2
GPRG | ≤ 0.2
KFTC | ≤ 0.2
RGGF | ≤ 0.2
QKWG | ≤ 0.2
RVTV | ≤ 0.2
CHCC | ≤ 0.2
FRFV | ≤ 0.2
YTPV | ≤ 0.2
PMHE | ≤ 0.2
NSDS | ≤ 0.2
RFWR | ≤ 0.2
TRCI | ≤ 0.2
AFFS | ≤ 0.2
QKTH | ≤ 0.2
LMWR | ≤ 0.2
SKPL | ≤ 0.2
WDMG | ≤ 0.2
CCNL | ≤ 0.2
YYSS | ≤ 0.2

Variant | one-hybrid fitness for binding parS DNA
EKQF | ≤ 0.2
AYPN | ≤ 0.2
SIMR | ≤ 0.2
RCIF | 0.245
QVQI | ≤ 0.2
ATYV | ≤ 0.2
LIYI | ≤ 0.2
TQTK | ≤ 0.2
KKGG | ≤ 0.2
QPEF | ≤ 0.2
FNSG | ≤ 0.2
RRHC | 0.616
NAEG | ≤ 0.2
KDTR | ≤ 0.2
RRWN | 0.323
SNQR | ≤ 0.2
NNRG | ≤ 0.2
NLVS | ≤ 0.2
